Assay results taken from the supplement of paper PMC3334620.
Over roughly 33,000 sequences, “E-score (-0.5 to 0.5)” has its median near -0.054; the highest 2% begin near 0.35. This is one part of the list.

molecular target: T1, Stb5 (UniProt P38699); experiment: PBM E-score (8-mer binding enrichment) (E-score (-0.5 to 0.5)); higher = stronger / more preferred TF binding; most listed sequences are background and not binding sites; details: protein concentration: 200 nM; construct: GST-full length
T1 sequence: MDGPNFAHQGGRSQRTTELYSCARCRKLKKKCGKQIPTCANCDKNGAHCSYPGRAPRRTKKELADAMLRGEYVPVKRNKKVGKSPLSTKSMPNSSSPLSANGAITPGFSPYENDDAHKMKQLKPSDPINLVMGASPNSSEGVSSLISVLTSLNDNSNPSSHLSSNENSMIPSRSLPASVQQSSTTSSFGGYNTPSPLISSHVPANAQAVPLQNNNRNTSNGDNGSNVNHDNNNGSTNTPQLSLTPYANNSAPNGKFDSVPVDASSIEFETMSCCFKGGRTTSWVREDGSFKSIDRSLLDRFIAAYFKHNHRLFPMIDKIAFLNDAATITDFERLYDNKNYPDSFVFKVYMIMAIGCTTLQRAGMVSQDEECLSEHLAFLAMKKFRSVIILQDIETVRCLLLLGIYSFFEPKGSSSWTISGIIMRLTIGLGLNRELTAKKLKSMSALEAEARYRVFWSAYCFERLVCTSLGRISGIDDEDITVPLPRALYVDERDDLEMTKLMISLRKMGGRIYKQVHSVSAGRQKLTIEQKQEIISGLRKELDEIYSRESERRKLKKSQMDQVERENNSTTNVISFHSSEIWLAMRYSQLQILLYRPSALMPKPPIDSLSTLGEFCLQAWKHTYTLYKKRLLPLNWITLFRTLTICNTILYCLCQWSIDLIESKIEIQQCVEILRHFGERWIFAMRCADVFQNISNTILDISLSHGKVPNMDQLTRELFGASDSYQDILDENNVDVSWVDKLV
Procedure: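 Universal 'all 10-mer' protein binding microarrays (Agilent AMADID 015681) probed with GST-tagged S. cerevisiae TFs (full-length or DBD) made by in vitro transcription/translation (PURExpress), about 100-200 nM. Bound TF was detected with fluorescent anti-GST. Each ungapped 8-mer (which stands for itself and its reverse complement) is scored by the PBM enrichment score (E-score), a modified Wilcoxon-Mann-Whitney statistic from -0.5 to +0.5, computed with the Universal PBM Analysis Suite. Scale: above 0.35 generally sequence-specific binding.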

Sequence	PBM E-score
AACTGGAA	-0.1
CGCCTTCA	-0.00421
CCGCTTGC	0.285
CATCAATC	-0.082
GAGGAACC	-0.105
AGTGTGTG	-0.332
ACGCACCT	-0.0301
AATATGGA	-0.115
CACCCCGC	0.394
ATACAGCC	0.098
ATTGAGGC	-0.099
CATGGTTC	-0.0461
CTTGTGAC	-0.0707
CCATACCA	-0.0288
ATGGACCG	0.165
CAGGTTCC	-0.142
AGCTCAGA	-0.165
ACTTGGCC	-0.0112
GGTCTTAC	0.273
CCAGGAAA	-0.207
AGAACGCG	0.0577
CGCGCGAA	-0.051
ACCATCTG	0.0158
CCTTCCTA	-0.246
CCACTGTC	-0.366

Sequence	PBM E-score
AGTTAAAG	-0.131
TGCTAGCA	0.0477
GCACACTA	-0.2
CGCTTCTA	0.135
CCCGAAGG	0.0865
AAGTGCGA	0.187
CCGCCTTC	0.167
GCGTTTAA	0.248
ACCGTGGC	0.0612
ATGATGAC	-0.101
AATCAAAG	-0.207
CAGGGCTA	-0.0647
AACACATG	-0.349
CTCAGCAA	-0.11
AATTAAAG	-0.0529
AGTCTATA	-0.0672
ACATTCCG	0.0624
GACGGCGA	0.243
AACGAAGT	-0.268
AAGCGAAA	-0.179
AAATGCGC	0.151
GTGCAATA	-0.0549
AACCGTTA	-0.101
GACCCATA	0.0505
GATAATGA	-0.00701

Sequence	PBM E-score
AGGTGTCC	-0.164
AAGAAAGT	0.0793
ACTCTATA	0.12
CATCGTAA	-0.00169
GGTCATCA	-0.138
ACTCACGC	-0.19
ACGATCGG	0.298
CCTGAGAC	-0.115
CGCCGTTC	0.306
AGGGACCC	-0.199
GAGCTACA	-0.044
CATATATA	0.0805
AGTAAAGC	-0.087
TCCTTTCA	-0.109
AACAGGAC	-0.151
AACCGCCG	0.362
AGACAATG	-0.135
ATTTCGCA	0.0103
AAGGTCTG	-0.17
CCAATTCG	-0.018
AGTAAGCC	-0.0363
AGATAAGC	-0.142
CGTAAGTA	0.0307
CTCACATC	-0.222
CCCAAAGG	0.00351

Sequence	PBM E-score
CAACCAAA	-0.018
AGGGAGAA	-0.243
ACAAGTAG	-0.0363
AACTCTAC	-0.243
CCACTACA	-0.14
CATTGCTA	-0.116
CCTCTTAA	0.00462
GCTCCGAC	0.271
ATCTGGGC	-0.0319
ATTCTGCA	-0.123
ATGCGCCA	-0.08
AGACGTTC	-0.202
ACCTAAAG	0.037
GTCAAGAC	-0.0663
CCAAACCG	0.0404
GACCGCAC	0.18
TGGCACCA	-0.218
CTTATCGC	0.0666
ACGGTTCC	-0.0233
ATTGTGGG	-0.183
GCAGTCCA	-0.0621
AGCGCGAT	-0.0144
ATATGTAA	-0.222
ATAATGGG	-0.107
CAAGATAA	0.0613

Sequence	PBM E-score
CGGACGAC	0.0486
ACTCCGTA	0.35
AGACCAGC	-0.285
CTGTAATC	-0.0549
AGAGATCA	-0.288
ATCGAAAT	-0.0708
ACGGAACT	0.266
CAAGTTCG	-0.00682
ATCGACTA	-0.257
CAAGATGA	-0.286
TAACGGGA	0.179
ACCCAAGG	0.0955
TATCAGCA	0.00155
ACTGGTCT	-0.216
CGCAGTTA	0.359
AATAAGCC	0.183
CCGCCTGA	0.262
ATGAGCAT	-0.314
CAGGTTTA	-0.0038
AGCGATGA	0.0899
ATGAGAAA	-0.172
TAAGACGA	-0.179
CAGATATC	-0.0024
ACAAAGTC	-0.0542
ACGGTGCC	0.372

Sequence	PBM E-score
AGTGTCAA	-0.277
ACTAGACT	-0.108
CCCGCACG	0.325
ACCTAGGT	-0.115
AGTGAAAA	0.0421
CCGCTGAC	0.312
GAATCACC	0.1
GTATCGCA	0.00152
CGGGACCG	0.259
GTAGCCGA	-0.0178
CACCTGCA	-0.159
ACAGACGC	0.113
ACCCTTTC	-0.0486
GCCTCGTA	-0.0888
GAACGTGA	-0.134
CATGCTAA	-0.271
GACGCTCC	0.0687
GGGCGCCC	0.147
CGTCGGAG	0.343
CTAATGCA	-0.185
ATAAACCG	0.0621
CACGTCTC	-0.106
GCCTGAAA	-0.0422
GCGCACCC	0.162
ACACACGG	0.192

Sequence	PBM E-score
AACCGACC	0.244
GAATAACC	0.122
ATGCTGAG	-0.167
CAACGCAG	-0.151
TAACTGGA	-0.116
GCCGTGCA	0.133
GGCCTACC	0.0269
ATGAGTAC	-0.0338
CCTAGGTC	-0.15
AACTTTTA	0.0894
CCTCGTAC	-0.0393
CTGTCAAG	-0.196
CCTCAAAA	-0.0199
GCTTTACC	0.0586
CTGACAAG	-0.0926
GGAACCCC	0.19
CTAATATA	0.12
AAGACGCC	0.178
AGGCCAGG	-0.259
ATCAAAAG	-0.0706
TCAATCGA	-0.112
ATCCCAAA	-0.115
AGAAACAG	-0.16
CAGAGTGG	-0.19
AAAGTAGT	-0.142

Sequence	PBM E-score
CATTAGGG	-0.205
GATTACCA	0.0331
AGACGCCT	-0.304
ACGTAGTG	-0.0954
ACATCACA	-0.199
AACTACTA	-0.067
GCGTCAGA	-0.036
GCCGATTA	0.214
ATTGCCCC	0.14
CCAGGCCC	-0.181
CCTACTAC	0.0452
AAGATCGA	-0.116
CTCGTCCA	-0.102
AATGTGAT	-0.0209
GTCATGAA	-0.103
AGGCTACT	-0.218
ACGGTCGC	0.135
GATTCACC	0.23
GTCGACCA	0.14
AGCGCACC	0.12
AGGGTGTA	-0.236
AAATGAGG	-0.21
GCCTCGCC	-0.169
ATGTCGAC	-0.176
AAACTCCG	0.463

Sequence	PBM E-score
GTATATAC	0.107
ACCTTTAA	-0.0406
TCGACGCA	-0.196
CTGTCATC	-0.0509
CATTAAGC	-0.117
CCGAACAC	0.109
GTGTAACA	0.206
TCGTAAGA	-0.0428
AAGAGAAT	-0.0105
ATTGCTAC	-0.00551
AAGTATGA	-0.139
CGGGAACC	0.0496
AAGTGTTC	-0.217
GTAGTCAA	0.0132
GGATAGCC	-0.119
GCCCCTAC	0.076
AGTTAAAA	0.0662
ACAAGGTA	-0.0411
AATAGCGC	0.217
